We go through 58 molecules from PubChem BioAssay AID1508624 (National Center for Advancing Translational Sciences (NCATS), 2021).

Screen size: about 48,000 compounds; about 120 (0.25%) were called active. About 4% were inconclusive and are not listed. Calls come from the whole dose curve; as a rule, active = well fitted activation curve with a large enough effect; inconclusive = small, poorly fitted or top-dose-only effect, or another doubt; inactive = no such curve, though single readings can be large or run the other way. The list shows a part of the results.

A short description of the assay: Primary qHTS for Identification of Small Molecule Activators of Huntingtin-Antisense Promoter Activity. Note: nearly all actives have a fitted effect of over 55% in size. As to conditions: HEK293 HTT-AS promoter firefly luciferase reporter, 24 h; series mostly up to 57.5 µM; activity change, positive = activation: at the top concentration. The gist of the method: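 HEK293 cells carrying firefly luciferase reporters were seeded at 2,500 per well in Opti-MEM and cultured for 24 h. They were then treated with compounds at up to 57.5 uM final for 24 h at 37 degrees C before Dual-Glo luminescence readout.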
On the technique in general: In qHTS, concentration-response curves come from the screen itself.
Take `Cc1ccc(CNC(=O)CSc2nc3c(sc4ccccc43)c(=O)n2CCCOC(C)C)cc1`: the “activity change, positive = activation” value was inactive: -9.61%. The same measure for `Cc1ccc(NC(=O)Cn2c(=O)n(Cc3ccccc3)c(=O)c3sc4ccccc4c32)cc1`: inactive: -9.13%. The same measure for `Cc1ccc(-n2c(=O)c3sc4ccccc4c3n(CC(=O)NC3CCCC3)c2=O)cc1C`: inactive: -26.6%; for `COc1ccc(OC)c(CCNC(=O)c2cc3c(s2)-c2c(C)cccc2OC3)c1`: inactive: -18%. With `CCc1nc2ccc(C(=O)N3CCN(c4cc(Cl)ccc4C)CC3)cc2nc1CC` the figure was inactive: -35%; with `Cc1ccc(S(=O)(=O)NCC2CCC(C(=O)NCCc3ccccc3)CC2)cc1` (stereo not drawn), inactive: -8.9%; with `CC(=O)Nc1ccc(S(=O)(=O)NC2(C(F)(F)F)C(=O)Nc3c2c(=O)[nH]c(=O)n3-c2cccc(Cl)c2)cc1` (stereo not drawn), inactive: -8.16%.

For the molecule `CCOC(=O)c1cnc2cc(C(F)(F)F)ccc2c1Nc1ccc(F)cc1F`, the “activity change, positive = activation” value is inactive: -12.7%.

For `CCC(=O)N1CCc2cc(CNS(=O)(=O)c3cc(OC)ccc3OC)ccc21`, the “activity change, positive = activation” value is inactive: -21.9%. The same measure for `O=C(c1ccc(F)cc1)c1cn(Cc2ccccc2F)c2cc3c(cc2c1=O)OCCO3`: inactive: -9.39%. The same measure for `Cc1cccc(-c2nc(CN3CCCC(C(=O)N4CCN(c5cc(Cl)ccc5C)CC4)C3)c(C)o2)c1` (stereo not drawn): inactive: -37.4%.

For `Cc1ccc(CSc2nc3cccnc3n2Cc2ccc(C(=O)NCc3ccco3)cc2)cc1`, the “activity change, positive = activation” value is inactive: 19.4%. Regarding `Oc1ccc(Cl)cc1C1=Nc2ccccc2N=C(c2ccccc2)C1`, the “activity change, positive = activation” value was inactive: -3.84%. The same measure for `COC(=O)CSc1ncc2c(n1)-c1ccccc1N(Cc1ccc(Cl)cc1)S2(=O)=O`: inactive: -15%; for `COc1ccc(CCn2c3c(c(=O)[nH]c2=O)C(NC(=O)c2ccc(Cl)cc2)(C(F)(F)F)C(=O)N3)cc1OC` (stereo not drawn): inactive: 6.17%. Regarding `COc1ccc(CNc2ncnc3c2nc2n3CCCC2)cc1`, the “activity change, positive = activation” value was inactive: -15.2%.

Regarding `Cc1cccc(CNC(=O)Cn2c(-c3cccs3)cc3ccccc32)c1`, the “activity change, positive = activation” value is inactive: -19.4%. As for `Cc1cccc(OCC(=O)Nc2ccccc2C(=O)OCc2cc(=O)n3ccsc3n2)c1`, the “activity change, positive = activation” value is inactive: 12.7%. The same measure for `COc1cccc(NC(=O)CN2C(=O)c3cccc4cccc2c34)c1`: inactive: -7.27% [at 11.5 µM, percent change from vehicle, -100% = no light]; for `Cn1ncc2c(Nc3cc(C(F)(F)F)ccc3Cl)ncnc21`: inactive: -3.14%. For the molecule `CC(NC(=O)c1ccc2c(c1)N(Cc1ccc(Cl)cc1)C(=O)CS2)c1ccccc1` (stereo not drawn), the “activity change, positive = activation” value was inactive: -17.1%. The same measure for `Cc1cn2c(-c3cn[nH]c3)cnc2c(Nc2ccc(C(=O)N3CCNCC3)cc2F)n1`: inactive: -27.6%. The same measure for `O=C(NNC(=O)c1ccc(CNS(=O)(=O)c2ccc(F)c(Cl)c2)cc1)c1ccccc1`: inactive: 23.1%. Take `CCN(c1cccc(C)c1)S(=O)(=O)c1cc(Br)cc2c1N(C(C)=O)C(C)C2` (stereo not drawn): the “activity change, positive = activation” value was inactive: -40.6%. For the molecule `CC1CCN(C(=O)CSc2n[nH]c(-c3ccc(F)cc3)n2)CC1`, the “activity change, positive = activation” value was inactive: -14.9%. `CC(C)OC(=O)c1ccc(Cn2nnc3sc4c(c3c2=O)CCCC4)cc1`: the “activity change, positive = activation” value was inactive: -10.4%. The same measure for `COc1ccc2c(c1)c1c(c(=O)n(-c3ccccc3C)c(=O)n1Cc1cccc(C(F)(F)F)c1)n2C`: inactive: -31.4%; for `O=C(Cn1ccnc1[N+](=O)[O-])NCCO`: inactive: -2.84%; for `CCCN(c1c(C)n(C)n(-c2ccccc2)c1=O)S(=O)(=O)c1ccc(C)cc1`: inactive: -18.2%. The same measure for `COc1ccc(C)cc1NC(=O)c1ccc(NS(=O)(=O)c2c(C)noc2C)cc1`: inactive: -13%.

In the case of `CCC(C(=O)Nc1cccc(Cl)c1C)n1nc(C)c2sc3ccccc3c2c1=O` (stereo not drawn), the “activity change, positive = activation” value was inactive: -8.96%. The same measure for `COc1ccc(-c2noc(CN(C)S(=O)(=O)c3c(C)cc(C)cc3C)n2)cc1OC`: inactive: -23%. Regarding `CC(=O)N1c2ccccc2C(=O)C1N1CCN(c2ccccc2F)CC1` (stereo not drawn), the “activity change, positive = activation” value is inactive: -19%. With `CCOC(=O)c1ccc(NC2=CC(c3ccc(OCC)cc3)N(c3ccc(C(=O)OCC)cc3)C2=O)cc1` (stereo not drawn) the figure was inactive: -13.3%; with `CCOC(=O)c1cnc2cc(C(F)(F)F)ccc2c1Nc1cc(C)ccc1OC`, inactive: -4.27% [at 11.5 µM, percent change from vehicle, -100% = no light].

As to `Cc1ccc(-c2nc(CCNC(=O)c3ccc(C)c(C)c3)cs2)cc1`, the “activity change, positive = activation” value was inactive: -24.9%.

On to `CC(C)(C)OC(=O)N1CCC(c2c(C(=O)NCc3ccccc3)cnn2-c2cccc(F)c2)CC1`, for which the “activity change, positive = activation” value is inactive: -28.6%. With `COc1ccccc1-c1nc2n(n1)C(c1ccccc1Cl)C(C(=O)Nc1cccnc1)=C(C)N2` (stereo not drawn) the figure was inactive: -3.18%; with `CCCCn1cc(S(=O)(=O)c2ccc(C)cc2)c(=O)c2cc(F)c(N3CCCCC3)cc21`, inactive: -8.81%; with `CCOc1ccccc1NC(=O)CSc1nnc2[nH]c(=O)cc(C)n12`, inactive: -10.7%. With `Cc1cc(O)c(C(c2ccccc2)N2CCCCC2)c(=O)n1Cc1ccco1` (stereo not drawn) the figure was inactive: 5.88%. With `CCSc1nn(CC(=O)Nc2cccc(CC)c2)c(N)c1S(=O)(=O)c1ccccc1`, the “activity change, positive = activation” value was inactive: -45.1%. With `COCCCNC(=O)C1CCN(Cc2cc3ccccc3n2Cc2ccccc2C)CC1` the figure was inactive: -25.2%. The same measure for `Cc1oc(-c2ccc(Cl)cc2)nc1CN1CCCC(C(=O)NCCc2ccc(Cl)cc2)C1` (stereo not drawn): inactive: -53.5%; for `Cc1ccc(S(=O)(=O)c2c(O)cc(C)c(NS(=O)(=O)c3ccc(Br)cc3)c2C)cc1`: inactive: -33%. The same measure for `Cc1ccc(-c2nc3c(c(SCc4ccc(Br)cc4)n2)Cc2c(CO)cnc(C)c2O3)cc1`: inactive: 22.1%. As to `CC(=O)OCC(COC(C)=O)OC(C)=O`, the “activity change, positive = activation” value is inactive: -5.1%. `O=C(CSc1nc2c([nH]c3ccccc32)c(=O)n1-c1ccc(Cl)cc1)N1CCc2ccccc21`: the “activity change, positive = activation” value is inactive: -10.1%. For `CSc1cccc(NC(=O)c2cnn(-c3ccc(F)cc3)c2-n2cccc2)c1`, the “activity change, positive = activation” value was inactive: -6.43%. The same measure for `COc1ccc(CCNC(=O)CCc2c(C)c3cc4c(C)c(C)oc4cc3oc2=O)cc1OC`: inactive: -6.17%; for `O=C(Cn1ncn2c(cc3sccc32)c1=O)NCCc1ccccc1`: inactive: -2.9%.

In the case of `Cc1ccc2c(=O)cc(C(=O)Nc3ccc(S(=O)(=O)N(C)c4ccccc4)cc3)oc2c1C`, the “activity change, positive = activation” value was inactive: -3.06%.

`Cc1ccc(CN2CCC(CNC(=O)c3cnn(-c4ccccc4Cl)c3C3CCN(C(=O)OC(C)(C)C)CC3)CC2)cc1`: the “activity change, positive = activation” value was inactive: -34.9%. With `COc1cc(/C=C/c2nc(C#N)c(N3CCN(C)CC3)o2)cc(OC)c1OC` the figure was inactive: -15.3%. The same measure for `COc1cccc(NS(=O)(=O)c2ccc3c(c2)n(C)c(=O)n3C)c1`: inactive: -33.1%; for `COc1ccc(NC(=O)COCc2cc(-c3ccc4c(c3)OCO4)on2)cc1`: inactive: 19.7%. With `CN(C(=O)c1ccc2c(c1)N(Cc1cccc(Cl)c1)C(=O)c1ccccc1S2(=O)=O)C1CCCCC1` the figure was inactive: -30.5%. In the case of `Cc1ccc(Cn2c(SCc3ccc(C(=O)NC4CCCCC4)cc3)nc3ccncc32)cc1`, the “activity change, positive = activation” value was inactive: -33.2%.
